The whole screen tested about 220,000 compounds, of which about 5,700 (2.6%) were called active. This list was built around the results that the source calls inconclusive (neither active nor inactive); the mix of calls is not that of the screen. The call rests on the fitted dose curve; in most records, active means well fitted inhibition curve with a large enough effect; inconclusive means small, poorly fitted or top-dose-only effect; inactive means no such curve, though single readings can be large or run the other way. Potencies beside an inconclusive call are fits to weak or partial responses and may not hold up.
Molecular target: Lysine-specific demethylase 5B (Homo sapiens) (UniProt Q9UGL1)
UniProt Q9UGL1, sequence (Q9UGL1 whole entry, looked up): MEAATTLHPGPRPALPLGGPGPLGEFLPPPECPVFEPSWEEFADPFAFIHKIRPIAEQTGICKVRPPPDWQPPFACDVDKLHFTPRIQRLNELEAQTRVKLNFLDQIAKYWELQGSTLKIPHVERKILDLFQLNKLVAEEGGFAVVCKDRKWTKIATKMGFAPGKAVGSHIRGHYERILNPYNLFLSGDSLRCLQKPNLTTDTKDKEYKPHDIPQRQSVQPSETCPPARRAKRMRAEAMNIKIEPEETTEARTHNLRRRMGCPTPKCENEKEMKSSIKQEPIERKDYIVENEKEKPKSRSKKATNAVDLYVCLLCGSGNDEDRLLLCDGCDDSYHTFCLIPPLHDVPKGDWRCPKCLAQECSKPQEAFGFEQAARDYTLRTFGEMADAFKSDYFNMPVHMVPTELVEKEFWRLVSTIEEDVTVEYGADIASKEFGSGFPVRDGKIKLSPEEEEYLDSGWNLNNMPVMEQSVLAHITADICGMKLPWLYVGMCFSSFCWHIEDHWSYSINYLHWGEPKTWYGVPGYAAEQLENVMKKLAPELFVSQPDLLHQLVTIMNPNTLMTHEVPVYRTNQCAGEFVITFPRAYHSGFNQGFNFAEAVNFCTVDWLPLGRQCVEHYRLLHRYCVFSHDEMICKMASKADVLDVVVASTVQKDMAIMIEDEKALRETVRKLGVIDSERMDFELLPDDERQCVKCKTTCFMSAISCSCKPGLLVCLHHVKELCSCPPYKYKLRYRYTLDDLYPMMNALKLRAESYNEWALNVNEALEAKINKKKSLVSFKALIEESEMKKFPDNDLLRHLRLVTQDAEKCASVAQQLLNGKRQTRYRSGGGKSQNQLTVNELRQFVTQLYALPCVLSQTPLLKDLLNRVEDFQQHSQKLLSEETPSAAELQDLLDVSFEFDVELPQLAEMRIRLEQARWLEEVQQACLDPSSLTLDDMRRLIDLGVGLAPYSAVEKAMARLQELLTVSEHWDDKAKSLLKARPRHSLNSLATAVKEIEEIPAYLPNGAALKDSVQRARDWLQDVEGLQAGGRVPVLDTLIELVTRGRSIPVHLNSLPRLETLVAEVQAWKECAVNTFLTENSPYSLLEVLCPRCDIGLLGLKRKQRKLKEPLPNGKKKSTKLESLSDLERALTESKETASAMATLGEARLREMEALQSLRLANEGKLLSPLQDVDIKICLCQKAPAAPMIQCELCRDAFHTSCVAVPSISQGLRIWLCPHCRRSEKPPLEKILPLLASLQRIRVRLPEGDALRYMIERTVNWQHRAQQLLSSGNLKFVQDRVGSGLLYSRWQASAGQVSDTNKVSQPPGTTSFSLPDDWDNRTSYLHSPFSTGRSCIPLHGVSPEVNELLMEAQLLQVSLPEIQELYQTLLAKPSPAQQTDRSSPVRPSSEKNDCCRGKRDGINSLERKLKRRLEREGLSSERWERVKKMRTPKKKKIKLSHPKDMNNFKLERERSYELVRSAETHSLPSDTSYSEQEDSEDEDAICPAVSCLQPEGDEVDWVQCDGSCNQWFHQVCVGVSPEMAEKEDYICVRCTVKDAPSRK
Experiment: Primary screen for KDM5B Histone Demethylases FDH-coupled qHTS; further: nearly all actives have a fitted effect of over 70% in size; on activity change, negative = inhibition: 0% is about no effect
Settings: FDH-coupled NADH fluorescence (FDH is formaldehyde dehydrogenase); activity change, negative = inhibition: at 57.7 µM (top of the series) unless noted
How it was run: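 qHTS format, multiple compound concentrations. Buffer 50 mM HEPES pH 7.5/0.01% Tween-20; 200 nM KDM5BΔAP final; 10 min compound preincubation; substrate-mix levels 12.5 µM peptide, 25 µM α-KG, 0.25 mM NAD⁺; 30 min RT; ΔRFU.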
Potency means the concentration at half of the fitted maximal effect; tags describe the fitted curve by direction and shape.

Row | SMILES | Potency | activity change, negative = inhibition
1 | Cc1ccc(-c2nnc([C@H]3CCN(C(=O)C4CC4)C3)o2)cc1 | inconclusive: 56.2 µM [inhibitor, single point] | 
2 | CCCN(CC1CC1)C(=O)C1CCC(=O)N(Cc2ccc(Cl)cc2)C1 (stereo not given) | inconclusive: 25.1 µM [inhibitor, single point] | 
3 | Cc1ccc(-c2nnc(Nc3ccc(C(=O)N(C)C)cc3)c3ccccc23)cc1S(=O)(=O)N(C)C | inconclusive: 25.1 µM [inhibitor, partial curve, poor fit] | 
4 | COC[C@H]1CCCN1[C@@H]1[C@H](O)[C@H](CO)O[C@@H]1CN(Cc1ccc(F)cc1)Cc1ccc(F)cc1 |  | inactive: -15.7%
5 | CN1CCC2(C1)CN(Cc1ccccc1)c1ccc(C(=O)NC3CCC(O)CC3)cc12 (stereo not given) | active: 39.8 µM | 
6 | COc1ccccc1CNC(=O)CCn1c(=O)c2cccn2c2cccnc21 | inconclusive: 15.8 µM [inhibitor, partial curve, poor fit] | 
7 | CN(C)S(=O)(=O)c1cccc(NC(=O)c2ccccc2Oc2ccccc2)c1 |  | inactive: -14.7%
8 | Cc1nnc(-c2cc(-c3ccc(N4CCOCC4)cc3)ccn2)n1Cc1ccccc1 | active: 20 µM | 
9 | COc1ccc(-c2nc(P(=O)(OC)OC)c(NCc3cccnc3)o2)cc1 | inconclusive: 31.6 µM [inhibitor, partial curve, poor fit] | 
10 | O=c1cc(N2CCOCC2)oc2c(-c3ccccc3)nccc12 | active: 31.6 µM | 
11 | Fc1ccc(-c2nnc3ccc(N4CCN(Cc5ccccc5)CC4)nn23)nc1 |  | inactive: -27.8% [at 86.2 µM]
12 | O=C(O)c1cc(S(=O)(=O)Nc2ccc(Cl)c3cccnc23)ccc1Cl | inconclusive: 20 µM [inhibitor, single point] | 
13 | Cc1ccc(-c2csc(/C(C#N)=C/c3cccnc3)n2)cc1 | inconclusive: 15.8 µM [inhibitor, single point] | 
14 | COCCN1CCCCCC(O)c2cc(C(=O)N3CCN(c4ccc(OC)cc4)CC3)ccc21 (stereo not given) | inconclusive: 14.1 µM [inhibitor, single point] | 
15 | Cc1ccc(-c2cc(C(=O)O)c3cccc(Cl)c3n2)s1 | inconclusive: 25.1 µM [inhibitor, partial curve, poor fit] | 
16 | COCCNc1nc(NCc2cccc(Cl)c2)c2cnn(C)c2n1 | inconclusive: 44.7 µM [inhibitor, single point] | 
17 | COc1ccc(-c2nc(C#N)c(N3CCCCCC3)o2)cc1OC | inconclusive: 1.78 µM [inhibitor, partial curve, poor fit] | 
18 | Nc1ccc(Cl)cc1C(=O)OCC(=O)NC1CCS(=O)(=O)C1 (stereo not given) | inconclusive: 25.1 µM [inhibitor, partial curve, poor fit] | 
19 | O=C(OCc1ccccc1)c1cc2ccccc2[nH]1 | inconclusive: 39.8 µM [inhibitor, single point] | 
20 | CN(C)c1ccc(C(=O)N[C@H]2CO[C@H]3[C@@H]2OC[C@@H]3n2cc(COc3ccccc3)nn2)cc1 | inconclusive: 31.6 µM [inhibitor, single point] | 
21 | COc1ccc(/C=C/C(=O)Nc2ccc3nc(N4CCC(C)CC4)cc(C)c3c2)cc1 | inconclusive: 1.41 µM [inhibitor, partial curve, poor fit] | 
22 | Cc1ccc(C(=O)Nc2c(C)nc3ccccn3c2=O)cc1C | inconclusive: 11.2 µM [inhibitor, partial curve, poor fit] | 

Row | SMILES | Potency | activity change, negative = inhibition
23 | CCOc1ccc(CNC(=O)c2ccc3c(c2)nc2n3CCOC2)cc1OC |  | inactive: -20%
24 | COc1ccc(N2CC(NC(=O)c3ccc(S(=O)(=O)N4CCCCC4)cc3)CC2=O)cc1 (stereo not given) | inconclusive: 15.8 µM [inhibitor, partial curve, poor fit] | 
25 | CCc1ccc(NC(=O)CN(c2cc(C)cc(C)c2)S(=O)(=O)c2c(C)[nH]c(=O)[nH]c2=O)cc1 |  | inactive: 7.9% [at 11.5 µM]
26 | CCCC1(C(=O)O)CCCN(C(=O)c2cccnc2OCC)C1 (stereo not given) |  | inactive: -8.95%
27 | COc1cccc(-c2nc(SCC(=O)NC3CCCC3)c(-c3ccc(C)cc3)[nH]2)c1 |  | inactive: 27.5%
28 | N#CC[C@@H](NC(=O)C1=C[C@@H](N)[C@@H](O)[C@H](O)C1)C(N)=O | inconclusive: 35.5 µM [inhibitor, single point] | 
29 | CC1=C(c2ccc(C(C)C)cc2)S(=O)(=O)N=C1N1CCC(C(=O)NCCc2ccco2)CC1 | inconclusive: 15.8 µM [inhibitor, partial curve, poor fit] | 
30 | Cc1cccc(NC(=O)c2cc3n(n2)CC(c2ccc(Cl)cc2)OC3)c1 (stereo not given) | inconclusive: 28.2 µM [inhibitor, partial curve] | 
31 | Cc1ccc(CNC(=O)c2ccc3nc(SCc4ccc(F)cc4)[nH]c3c2)cc1 | inconclusive: 22.4 µM [inhibitor, partial curve, poor fit] | 
32 | CCn1ncc(NC(=O)Cn2cc(-c3ncnc4ccsc34)cn2)n1 | inconclusive: 25.1 µM [inhibitor, single point] | 
33 | N#CCCN1CCN(C(C(=O)O)c2cn(CCC(=O)O)c3cc(F)ccc23)CC1 (stereo not given) |  | inactive: -13.4%
34 | c1ccc(Oc2ccc(Nc3cnc4ccc(N5CCOCC5)nn34)cc2)cc1 | inconclusive: 35.5 µM [inhibitor, single point] | 
35 | Cc1cccc(NC(=O)c2ccc3c(c2)N(C)C2CCCCCN2C3=O)c1 (stereo not given) | inconclusive: 22.4 µM [inhibitor, partial curve, poor fit] | 
36 | Cc1ccc(N(Cc2cc3ccc(C)cc3[nH]c2=O)S(C)(=O)=O)cc1 |  | inactive: -6.62%
37 | Nc1ncc(C(=O)N[C@@H]2CC[C@@H](N)C2)c(-c2ccccc2)n1 | active: 22.4 µM | 
38 | C=CCNCc1ccccc1OCc1ccc(C)cc1 |  | inactive: -6.62%
39 | O=C1C(=C(c2ccccc2)c2ccccc2)C(Cl)C(Cl)(Cl)c2ccccc21 (stereo not given) | inconclusive: 14.1 µM [inhibitor, partial curve, poor fit] | 
40 | CCOc1cc(/C=C/C(=O)c2ccc(Cl)cc2)cc(Cl)c1O | inconclusive: 20 µM [inhibitor, single point] | 
41 | Cc1ccc(CO)cc1Nc1ncnc2onc(-c3ccc(F)cc3)c12 | inconclusive: 2.24 µM [inhibitor, partial curve, poor fit] | 
42 | CCCCCC(C)NCc1sccc1C (stereo not given) | inconclusive: 39.8 µM [inhibitor, single point] | 
43 | CCOc1cccc2cc(S(=O)(=O)c3ccccc3F)c(=O)oc12 |  | inconclusive: -36.9% [inhibitor]
44 | Cc1ccc2nc3c(c(N)c2c1)CCN3C | inconclusive: 28.2 µM [inhibitor, partial curve, poor fit] | 

Row | SMILES | Potency | activity change, negative = inhibition
45 | Cc1cc(C)c2c(CN3CCN(c4ccc(F)cc4)CC3)cc(=O)oc2c1 |  | inactive: -0.878%
46 | COc1ccc(/C=C/C(=O)Nc2nc(-c3cccs3)ns2)cc1OC | inconclusive: 25.1 µM [inhibitor, partial curve, poor fit] | 
47 | COCC1CN(C2CCC2)CC12CCN(C(=O)c1nccn1C)CC2 (stereo not given) | inconclusive: 12.6 µM [inhibitor, partial curve] | 
48 | CC(C)NS(=O)(=O)c1cc(C(=O)O)cc(-c2cccc3c2OCC3)c1 | inconclusive: 20 µM [inhibitor, partial curve, poor fit] | 
49 | Cc1ccc(CN(Cc2ccco2)C(=O)COc2ccc(C)c(C)c2)cc1 | inconclusive: 1.58 µM [inhibitor, partial curve, poor fit] | 
50 | Cc1ccc(OCC(=O)N/N=C/c2cn(C)c3ccccc23)cc1 | inconclusive: 1.78 µM [inhibitor, full curve, poor fit] | 
51 | CCOC(=O)c1cccc(NC(=O)c2ccc3c(c2)N(C)C2CCCCN2C3=O)c1 (stereo not given) | inconclusive: 35.5 µM [inhibitor, partial curve, poor fit] | 
52 | NC(=O)c1ccc(-c2nnn(CC(=O)N3CCCC3c3ccc4c(c3)OCCO4)n2)cc1 (stereo not given) |  | inactive: -11.2%
53 | c1cc(CNCCCn2ccnc2)ccn1 |  | inactive: 9.28%
54 | O=C1NC[C@@H](CCC(=O)N2CCN(c3ccccn3)CC2)N2C[C@@H](NCc3ccccc3)C[C@@H]12 | active: 31.6 µM | 
55 | CC(=O)Oc1c(-c2ccc(NC(=O)c3ccco3)cc2)c(-c2cccc(C)c2)nn1-c1ccc(F)cc1 | inconclusive: 15.8 µM [inhibitor, partial curve, poor fit] | 
56 | COc1cccc(NC(=O)CC2Nc3cc(C)c(C)cc3NC2=O)c1 (stereo not given) | inconclusive: 28.2 µM [inhibitor, partial curve, poor fit] | 
57 | O=C(CSCc1coc(-c2ccc(Cl)cc2)n1)NC1CCCCCC1 |  | inactive: 14.7%
58 | CC(=O)Nc1ccc(C2Nc3ccccc3C(=O)N2c2ccc(F)cc2)cc1 (stereo not given) | inconclusive: 31.6 µM [inhibitor, partial curve, poor fit] | 
59 | COc1ccc(C(=O)Nc2ccc3nc(N4CCCC4)sc3c2)cc1OC |  | inactive: -7.45%
60 | Cc1oc(-c2cccs2)nc1CC(=O)N1CCC(C(=O)NCc2ccccc2)CC1 | inconclusive: 25.1 µM [inhibitor, partial curve, poor fit] | 
61 | CCc1nc2c(=O)n(CC(=O)NCc3cccnc3)nc(C)c2s1 |  | inactive: -8.28%
62 | COc1ccc(-n2nc3n(c2=O)CCN(C(=O)c2ccccn2)C3)cc1 | inconclusive: 39.8 µM [inhibitor, partial curve, poor fit] | 
63 | COc1ccc(-c2c(C)c3ccc(O)c(CN4CCN(CCO)CC4)c3oc2=O)cc1OC | inconclusive: 35.5 µM [inhibitor, partial curve, poor fit] | 
64 | O=C1Cc2cc(C(=O)CSc3nnc(-c4ccccc4Cl)o3)c(Cl)cc2N1 |  | inactive: -7.41%
65 | O=C(NCc1cccc(F)c1)c1ccc(NC(=O)c2nsc3ccccc23)cc1 | inconclusive: 44.7 µM [inhibitor, single point] | 
